Data: PubChem BioAssay AID504339 (National Center for Advancing Translational Sciences (NCATS), 2011)
The whole screen tested about 390,000 compounds, of which about 17,000 (4.4%) were called active. The shares of active, inactive and inconclusive entries below differ from those in the screen. Calls come from the whole dose curve; as a rule, active = well fitted inhibition curve with a large enough effect; inconclusive = small, poorly fitted or top-dose-only effect; inactive = no such curve, though single readings can be large or run the other way. Potencies of inconclusive entries are doubtful fits and often do not repeat.

target: Lysine-specific demethylase 4A (Homo sapiens) (UniProt O75164); test: qHTS Assay for Inhibitors of JMJD2A-Tudor Domain; settings: AlphaScreen JMJD2A-Tudor / H3K4me3 peptide binding; activity change, negative = inhibition: at 114 µM (top of the series); note: nearly all actives have a fitted effect of over 50% in size
% is set by controls: 0 for no effect and ±100 for the full control effect; potency is the fitted concentration of half-maximal effect; tags give direction and shape of the fitted curve.

Chain of UniProt O75164 (O75164 whole entry, looked up, the tested form may be a part): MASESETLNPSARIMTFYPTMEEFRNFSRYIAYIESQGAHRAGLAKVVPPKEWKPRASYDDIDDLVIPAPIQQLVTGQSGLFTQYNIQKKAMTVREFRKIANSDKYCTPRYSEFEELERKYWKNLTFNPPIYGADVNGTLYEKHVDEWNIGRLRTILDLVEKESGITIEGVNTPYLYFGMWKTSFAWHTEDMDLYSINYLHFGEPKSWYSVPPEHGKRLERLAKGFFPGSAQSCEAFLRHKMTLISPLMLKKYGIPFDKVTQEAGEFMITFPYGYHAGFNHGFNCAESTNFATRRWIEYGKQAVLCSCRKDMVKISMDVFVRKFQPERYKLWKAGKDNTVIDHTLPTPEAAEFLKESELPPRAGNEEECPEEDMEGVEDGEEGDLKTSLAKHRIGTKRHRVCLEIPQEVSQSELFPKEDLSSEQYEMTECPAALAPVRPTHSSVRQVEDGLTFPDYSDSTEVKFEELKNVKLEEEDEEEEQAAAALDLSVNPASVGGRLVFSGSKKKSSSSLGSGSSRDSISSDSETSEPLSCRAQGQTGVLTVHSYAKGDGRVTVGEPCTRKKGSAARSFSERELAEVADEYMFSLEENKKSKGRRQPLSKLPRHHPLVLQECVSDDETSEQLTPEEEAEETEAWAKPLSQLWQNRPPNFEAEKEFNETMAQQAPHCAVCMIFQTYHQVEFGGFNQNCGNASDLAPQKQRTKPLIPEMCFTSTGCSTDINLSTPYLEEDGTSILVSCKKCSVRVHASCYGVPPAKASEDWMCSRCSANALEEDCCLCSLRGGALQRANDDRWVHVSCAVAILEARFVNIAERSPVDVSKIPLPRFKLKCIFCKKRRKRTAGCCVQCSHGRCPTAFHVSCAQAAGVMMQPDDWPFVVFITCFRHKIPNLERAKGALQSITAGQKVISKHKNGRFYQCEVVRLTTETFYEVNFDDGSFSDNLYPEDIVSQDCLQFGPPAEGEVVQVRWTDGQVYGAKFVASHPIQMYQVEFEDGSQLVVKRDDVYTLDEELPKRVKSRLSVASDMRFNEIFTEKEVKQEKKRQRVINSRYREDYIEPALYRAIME

| SMILES | activity change, negative = inhibition | Potency |
| --- | --- | --- |
| COc1ccc(N2C(=O)C3CCCN3C2c2ccc(C)o2)cc1 (configuration not stated) | inactive: -1.43% |  |
| CCOC(=O)c1c(C)oc2nc(C)nc(NCC3CCN(Cc4cccc(Cl)c4)CC3)c12 | inactive: -28.5% |  |
| CNc1nc(-c2ccc(Cl)cc2)cs1 |  | inconclusive: 89.1 µM [inhibitor, single point] |
| O=C(c1ccccc1F)N(Cc1ccc2c(c1)OCO2)Cc1cc2cc3c(cc2n2nnnc12)OCO3 | inactive: -1.09% |  |
| COc1ccc(CCNC(=O)CSc2n[nH]c(-c3ccccc3Cl)n2)cc1OC | inactive: -9.42% |  |
| O=c1c2ccccc2nc2c3ccccc3c(NCc3ccccn3)nn12 |  | inconclusive: 89.1 µM [inhibitor, single point] |
| COc1ccc(Nc2c(-c3ccccn3)nc3ccc(Cl)cn23)cc1 |  | inconclusive: 2.24 µM [inhibitor, full curve] |
| c1ccc2c3c(cc(N4CCOCC4)c2c1)OC1(N2CCOCC2)CCCCC1O3 (configuration not stated) |  | inconclusive: 50.1 µM [inhibitor, partial curve] |
| O=S(=O)(c1cccc2nsnc12)N1CCN(C/C=C/c2ccccc2)CC1 |  | inconclusive: 70.8 µM [inhibitor, partial curve, poor fit] |
| CCN1/C(=C/C=C/c2sc3ccccc3[n+]2CC)Sc2ccccc21 | inactive: -1.44% |  |
| Cc1ccc(C2=NNC(c3ccc(Cl)cc3)=Nc3ccccc32)o1 |  | inconclusive: 25.1 µM [inhibitor, full curve] |
| Cc1cccc(C2(c3cccc(C)c3)CC2C(=O)Nc2ccc([N+](=O)[O-])cc2O)c1 (configuration not stated) |  | inconclusive: 20 µM [inhibitor, full curve] |
| COc1ccc(NC(=O)COC(=O)C2CCC(C(C)(C)C)CC2)c([N+](=O)[O-])c1 (configuration not stated) |  | inconclusive: 14.1 µM [inhibitor, partial curve] |
| O=C(Cn1nc(-c2ccc(Cl)cc2)ccc1=O)N1CCN(c2ccccc2)CC1 |  | inconclusive: 63.1 µM [inhibitor, partial curve, poor fit] |
| Oc1ccc(N=Cc2ccc(OCc3ccccc3)cc2)cc1 |  | inconclusive: 56.2 µM [inhibitor, partial curve] |
| CCN(CCO)Cc1cn[nH]c1-c1ccc(C)c(C)c1 |  | active: 3.55 µM |
| O=C(Cn1cnc([N+](=O)[O-])n1)N/N=C/c1ccccc1O |  | inconclusive: 79.4 µM [inhibitor, partial curve] |
| CCOC(=O)Nc1sc(C(=O)N(CC)CC)c(C)c1C(=O)OCC |  | inconclusive: 100 µM [inhibitor, partial curve] |
| COc1ccc(C)cc1S(=O)(=O)Nc1cccc(-c2ccc(N3CCCCCC3)nn2)c1 |  | active: 15.8 µM |
| O=C(CCN1CCOCC1)c1ccc(Cl)cc1 |  | inconclusive: 50.1 µM [inhibitor, partial curve] |
| O=C(c1cc(-c2ccc(O)cc2)on1)N1CCN(c2ccccc2)CC1 |  | active: 56.2 µM |
| Clc1cccc(Cl)c1OCCOCCNCc1ccccc1 |  | active: 20 µM |
| Cc1ccc(NCCC(=O)c2cccs2)cc1Cl | inactive: 4.72% [at 57.1 µM] |  |
| Cc1ccc(OCC(=O)N(Cc2ccc(N(C)C)cc2)C2CCS(=O)(=O)C2)cc1C (configuration not stated) |  | inconclusive: 14.1 µM [inhibitor, full curve] |

| SMILES | activity change, negative = inhibition | Potency |
| --- | --- | --- |
| CC(C)(C)c1ccc(C(=O)NCC(=O)OCC(=O)Nc2ccccc2[N+](=O)[O-])cc1 |  | inconclusive: 56.2 µM [inhibitor, partial curve] |
| Cc1onc(C(=O)NN)c1C(=O)N1CCN(C(c2ccccc2)c2ccccc2)CC1 |  | inconclusive: 79.4 µM [inhibitor, single point] |
| CC[N+]1(C)CCC(O)(/C=C/c2ccccc2)C(C(=O)/C=C/c2ccccc2)C1 (configuration not stated) |  | active: 39.8 µM |
| CCc1ccc(C2c3[nH]c4ccccc4c3CCN2C(=O)CNC(N)=O)cc1 (configuration not stated) |  | inconclusive: 56.2 µM [inhibitor, partial curve] |
| CCOC(=O)CSc1nnc(CNc2ccccc2Cl)n1-c1ccccc1 |  | inconclusive: 89.1 µM [inhibitor, partial curve] |
| COc1cc(/C=N\Nc2cc(=O)n(C)c(=O)n2C)ccc1O | inactive: -2.56% |  |
| OCCOCCn1c(C(CO)Nc2nc(-c3cccc(Br)c3)cs2)nc2ccccc21 (configuration not stated) |  | inconclusive: 89.1 µM [inhibitor, partial curve] |
| COc1ccc(CNc2ncnc3cc(Cl)ccc23)cc1 | inactive: -3.68% |  |
| COC(=O)C1=C(C(=O)OC)SC2(S1)C(C(=O)OC)=C(C(=O)OC)SC1=C2c2cc(C)cc(C)c2NC1(C)C |  | inconclusive: 56.2 µM [inhibitor, partial curve, poor fit] |
| CSCC[C@H](NC(=O)c1ccc(Cl)c([N+](=O)[O-])c1)c1nc2ccccc2[nH]1 |  | inconclusive: 35.5 µM [inhibitor, partial curve] |
| COC(=O)c1c(N2C(=O)[C@H]3[C@@H](C2=O)[C@]2(C(=O)Nc4c(C)cc(C)cc42)N2CCC[C@@H]32)sc(C)c1C |  | inconclusive: 56.2 µM [inhibitor, partial curve] |
| O=C(Nc1ccon1)C1CCN(S(=O)(=O)c2cccs2)CC1 |  | inconclusive: 7.08 µM [inhibitor, single point] |
| O=C(OC1CCOC1=O)c1ccc(NS(=O)(=O)c2cccs2)cc1 (configuration not stated) |  | inconclusive: 39.8 µM [inhibitor, single point] |
| Cc1ccccc1C(=O)OC1OC(=O)C(Cl)=C1Nc1ccc(C(=O)O)cc1 (configuration not stated) |  | active: 14.1 µM |
| CC(=O)Nc1cccc(S(C)(=O)=O)c1 |  | inconclusive: 89.1 µM [inhibitor, single point] |
| Cc1ccc(S(=O)(=O)NCCOc2nc(N(C)C)nc(N3CCOCC3)n2)cc1 | inactive: 2.88% |  |
| CN1C(C(=O)Nc2ccc(OC(F)(F)F)cc2)=CC(c2ccco2)=NS1(=O)=O |  | inconclusive: 79.4 µM [inhibitor, partial curve] |
| NC(=O)NN=C1c2cc(S(=O)(=O)N3CCOCC3)ccc2-c2ccc(S(=O)(=O)N3CCOCC3)cc21 | inactive: -22% |  |
| COc1ccc(/C=C/C(=O)NC(=S)Nc2cc([N+](=O)[O-])ccc2O)cc1OC |  | active: 89.1 µM |
| CCOC(=O)c1c(N)sc2c1CCCC2 |  | inconclusive: 56.2 µM [inhibitor, partial curve] |
| O=C(Nc1nnc(C2CC2)s1)C1Cc2ccccc2CN1C(=O)c1ccco1 (configuration not stated) |  | inconclusive: 39.8 µM [inhibitor, single point] |
| CCn1c(CCl)nc2cc(S(=O)(=O)N3CCOCC3)ccc21 |  | inconclusive: 39.8 µM [inhibitor, partial curve] |
| O=C(COc1ccc(F)cc1)N/N=C/c1cccc2cccnc12 |  | active: 89.1 µM |
| COc1cccc(C(=O)NC(=S)Nc2ccccc2N2CCCC2)c1 |  | inconclusive: 70.8 µM [inhibitor, single point] |

| SMILES | activity change, negative = inhibition | Potency |
| --- | --- | --- |
| COc1cccc2cc(C(=O)NNC(=O)c3ccc(Br)cc3)c(=O)oc12 |  | active: 79.4 µM |
| COC(=O)C1=C(c2ccccc2)c2ccccc2S(=O)(=O)N1CC(=O)Nc1ccccc1Cl | inactive: -21.2% |  |
| O=c1cc(CO)oc(CN2CCCC2)c1O |  | active: 89.1 µM |
| Cc1ccc(NC(=O)NNC(=O)c2ccccc2)cc1 | inactive: -4.76% |  |
| COc1ccc(Cc2nnc(NC(=O)C3CC(=O)N(CCc4ccc(F)cc4)C3)s2)cc1OC (configuration not stated) |  | inconclusive: 79.4 µM [inhibitor, partial curve] |
| Cc1cc(C)n(-c2nc3ccccc3nc2NCCc2ccccc2)n1 | inactive: 366% |  |
| O=C(Nc1ccccc1)c1ccc[nH]1 |  | inconclusive: 15.8 µM [inhibitor, full curve] |
| Cc1ccc(C)c(N2CCN(Cc3csc(C)c3)CC2)c1 | inactive: -30.4% |  |
| COc1cc(Cl)cc2c1Sc1ccccc1/C2=C/CCN(C)C |  | inconclusive: 50.1 µM [inhibitor, partial curve] |
| CCOc1ccc(-n2c(=S)sc3c(=O)[nH]c(SCC(=O)C(C)(C)C)nc32)cc1 |  | inconclusive: 89.1 µM [inhibitor, partial curve] |
| CCOC(=O)c1ccc(S(=O)(=O)N2CCN(CC3CC=CCC3)CC2)cc1 (configuration not stated) | inactive: -0.746% |  |
| COC(=O)c1ccc(C23CC4(C2)[C@H](CN(C)[C@@H]4c2ccccc2)C3c2ccc(Cl)nc2)cc1 (some centres not stated) |  | inconclusive: 50.1 µM [inhibitor, partial curve] |
| COc1cccc(C(=O)Nc2ccccc2-c2nnc(-c3cccc(OC)c3)o2)c1 | inactive: -1.12% |  |
| Cc1ccc2nc(CCl)[n+]([O-])c(-c3ccccc3)c2c1 |  | active: 17.8 µM |
| Cc1c(NC(=O)COc2ccc3ccccc3c2)c(=O)n(-c2ccccc2)n1C |  | inconclusive: 0.794 µM [inhibitor, full curve] |
| CCCNC(=O)c1ccc2snnc2c1 | inactive: -0.358% |  |
| Cc1ccc(O)c(C(=O)c2cnn(C(=O)COc3ccc(Cl)cc3)c2)c1 |  | inconclusive: 70.8 µM [inhibitor, single point] |
| O=C(O)CC(C(=O)O)n1nc(-c2ccccc2)cc1-c1ccccc1 (configuration not stated) |  | inconclusive: 89.1 µM [inhibitor, single point] |
| O=C(CSc1nc2c([nH]c3ccccc32)c(=O)n1-c1ccc(Cl)cc1)NCC1CCCO1 (configuration not stated) | inactive: -4.52% |  |
| Cc1ccc(CSc2ncnc3ccccc23)cc1 | inactive: 96.5% |  |
| C=CCSc1nc2sc3c(c2c(=O)n1CC)CCc1ccccc1-3 |  | inconclusive: 56.2 µM [inhibitor, partial curve] |
| COc1ccc(Cl)cc1C(=O)C1CCCN(Cc2cnc(N3CCOCC3)s2)C1 (configuration not stated) |  | active: 14.1 µM |
| Cc1ccccc1Nc1c(-c2cccs2)nc2cccc(C)n12 |  | inconclusive: 10 µM [inhibitor, full curve, poor fit] |
| O=C(O)c1ccc(/C=N/Nc2ccc(S(=O)(=O)N3CCCC3)cc2[N+](=O)[O-])cc1 |  | inconclusive: 56.2 µM [inhibitor, partial curve] |
